This is one part of the list. The list includes weakly bound sequences.

In this assay the target is T1, MBP-FoxP3dN (UniProt Q99JB6).
T1 sequence: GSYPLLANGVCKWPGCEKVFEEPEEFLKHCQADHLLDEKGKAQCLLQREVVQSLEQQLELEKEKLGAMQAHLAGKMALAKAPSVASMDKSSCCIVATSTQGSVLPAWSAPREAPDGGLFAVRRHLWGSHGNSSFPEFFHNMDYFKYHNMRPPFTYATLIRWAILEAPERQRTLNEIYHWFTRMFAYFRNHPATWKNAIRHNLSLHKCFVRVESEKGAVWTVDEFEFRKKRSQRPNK
Description: PD-seq (MBP pull-down with sequencing). To be noted: 20 mM Tris-HCl pH 7.5, 100 mM NaCl, 1.5 mM MgCl2, 0.4 uM protein, 0.1 uM dsDNA library, 30 min, room temperature, amylose pull-down; high values mean tight binding; double strand, one strand shown.
For the sequence “GATGATTGTTCTCCCAGCTGATGAATTTTTGGGGTCGAGTAAACAAATTTTCCTAATCTTTCTGTTCAAGCGCCATCTAC”, the binding signal (RPM ratio (pull-down/input)) was determined as 0.233.
As to “GATGATTGTTCTCCCAGCTGATGAATTTCGGCGGTCGAGTAAACAAATTTTCCTAATCTTTCTGTTCAAGCGCCATCTAC”, the binding signal (RPM ratio (pull-down/input)) stood at 0.285.
The figure for “GATGATTGTTCTCCCAGCTGATGAATTGGGGAAGTCGAGTAAACAAATTTTCCTAATCTTTCTGTTCAAGCGCCATCTAC” is 0.194.
For “GATGATTGTTCTCCCAGCTGATGAATTTTGCACATCGAGTAAACAAATTTTCCTAATCTTTCTGTTCAAGCGCCATCTAC”, the binding signal (RPM ratio (pull-down/input)) worked out at 1.71.
Regarding “GATGATTGTTCTCCCAGCTGATGAATTTCTTATATCGAGTAAACAAATTTTCCTAATCTTTCTGTTCAAGCGCCATCTAC”, the binding signal (RPM ratio (pull-down/input)) worked out at 0.379.
Regarding “GATGATTGTTCTCCCAGCTGATGAATTTAATGCGTCGAGTAAACAAATTTTCCTAATCTTTCTGTTCAAGCGCCATCTAC”, the binding signal (RPM ratio (pull-down/input)) turned out to be 1.63.
Turning to “GATGATTGTTCTCCCAGCTGATGAATTGCGGCATTCGAGTAAACAAATTTTCCTAATCTTTCTGTTCAAGCGCCATCTAC”, the binding signal (RPM ratio (pull-down/input)) was found to be 7.34.
The figure for “GATGATTGTTCTCCCAGCTGATGAATTCAAATCCTCGAGTAAACAAATTTTCCTAATCTTTCTGTTCAAGCGCCATCTAC” is 0.253; for “GATGATTGTTCTCCCAGCTGATGAATTCTACAGATCGAGTAAACAAATTTTCCTAATCTTTCTGTTCAAGCGCCATCTAC” it is 0.224.
The figure for “GATGATTGTTCTCCCAGCTGATGAATTGGCCTAATCGAGTAAACAAATTTTCCTAATCTTTCTGTTCAAGCGCCATCTAC” is 0.36; for “GATGATTGTTCTCCCAGCTGATGAATTCCTTCGATCGAGTAAACAAATTTTCCTAATCTTTCTGTTCAAGCGCCATCTAC” it is 0.204; for “GATGATTGTTCTCCCAGCTGATGAATTTCCTCCATCGAGTAAACAAATTTTCCTAATCTTTCTGTTCAAGCGCCATCTAC” it is 0.199.
The figure for “GATGATTGTTCTCCCAGCTGATGAATTCCATGATTCGAGTAAACAAATTTTCCTAATCTTTCTGTTCAAGCGCCATCTAC” is 0.625; for “GATGATTGTTCTCCCAGCTGATGAATTGAATCCCTCGAGTAAACAAATTTTCCTAATCTTTCTGTTCAAGCGCCATCTAC” it is 0.317; for “GATGATTGTTCTCCCAGCTGATGAATTTAGGCTGTCGAGTAAACAAATTTTCCTAATCTTTCTGTTCAAGCGCCATCTAC” it is 0.592.
Regarding “GATGATTGTTCTCCCAGCTGATGAATTAACACGCTCGAGTAAACAAATTTTCCTAATCTTTCTGTTCAAGCGCCATCTAC”, the binding signal (RPM ratio (pull-down/input)) worked out at 0.485.
Regarding “GATGATTGTTCTCCCAGCTGATGAATTAAGGAAATCGAGTAAACAAATTTTCCTAATCTTTCTGTTCAAGCGCCATCTAC”, the binding signal (RPM ratio (pull-down/input)) came to 0.293.
In the case of “GATGATTGTTCTCCCAGCTGATGAATTGGCTTGCTCGAGTAAACAAATTTTCCTAATCTTTCTGTTCAAGCGCCATCTAC”, the binding signal (RPM ratio (pull-down/input)) is 1.4.
The same measure for “GATGATTGTTCTCCCAGCTGATGAATTATGACGATCGAGTAAACAAATTTTCCTAATCTTTCTGTTCAAGCGCCATCTAC”: 0.361; for “GATGATTGTTCTCCCAGCTGATGAATTTACGGTATCGAGTAAACAAATTTTCCTAATCTTTCTGTTCAAGCGCCATCTAC”: 0.88; for “GATGATTGTTCTCCCAGCTGATGAATTAATGCCTTCGAGTAAACAAATTTTCCTAATCTTTCTGTTCAAGCGCCATCTAC”: 3.2.
The figure for “GATGATTGTTCTCCCAGCTGATGAATTGTGTAATTCGAGTAAACAAATTTTCCTAATCTTTCTGTTCAAGCGCCATCTAC” is 3.19.
For the sequence “GATGATTGTTCTCCCAGCTGATGAATTAAATTGTTCGAGTAAACAAATTTTCCTAATCTTTCTGTTCAAGCGCCATCTAC”, the binding signal (RPM ratio (pull-down/input)) came to 1.81.
For “GATGATTGTTCTCCCAGCTGATGAATTCAGTCGTTCGAGTAAACAAATTTTCCTAATCTTTCTGTTCAAGCGCCATCTAC”, the binding signal (RPM ratio (pull-down/input)) amounted to 0.694.
The figure for “GATGATTGTTCTCCCAGCTGATGAATTTCTATCTTCGAGTAAACAAATTTTCCTAATCTTTCTGTTCAAGCGCCATCTAC” is 0.333; for “GATGATTGTTCTCCCAGCTGATGAATTGATTTGATCGAGTAAACAAATTTTCCTAATCTTTCTGTTCAAGCGCCATCTAC” it is 0.64; for “GATGATTGTTCTCCCAGCTGATGAATTCTTGTAGTCGAGTAAACAAATTTTCCTAATCTTTCTGTTCAAGCGCCATCTAC” it is 0.436.
As for “GATGATTGTTCTCCCAGCTGATGAATTCGATGCTTCGAGTAAACAAATTTTCCTAATCTTTCTGTTCAAGCGCCATCTAC”, the binding signal (RPM ratio (pull-down/input)) was determined as 1.89.
With “GATGATTGTTCTCCCAGCTGATGAATTCGCAAGGTCGAGTAAACAAATTTTCCTAATCTTTCTGTTCAAGCGCCATCTAC”, the binding signal (RPM ratio (pull-down/input)) worked out at 0.378.
The same measure for “GATGATTGTTCTCCCAGCTGATGAATTTTATGCCTCGAGTAAACAAATTTTCCTAATCTTTCTGTTCAAGCGCCATCTAC”: 0.845.
With “GATGATTGTTCTCCCAGCTGATGAATTTCCCGTGTCGAGTAAACAAATTTTCCTAATCTTTCTGTTCAAGCGCCATCTAC”, the binding signal (RPM ratio (pull-down/input)) was 0.287.
On to “GATGATTGTTCTCCCAGCTGATGAATTACTGTCCTCGAGTAAACAAATTTTCCTAATCTTTCTGTTCAAGCGCCATCTAC”, for which the binding signal (RPM ratio (pull-down/input)) is 0.357.
As to “GATGATTGTTCTCCCAGCTGATGAATTTTATCATTCGAGTAAACAAATTTTCCTAATCTTTCTGTTCAAGCGCCATCTAC”, the binding signal (RPM ratio (pull-down/input)) was determined as 2.28.
Consider “GATGATTGTTCTCCCAGCTGATGAATTAGACGGATCGAGTAAACAAATTTTCCTAATCTTTCTGTTCAAGCGCCATCTAC”, for which the binding signal (RPM ratio (pull-down/input)) is 0.245.
For the sequence “GATGATTGTTCTCCCAGCTGATGAATTTCTTGTTTCGAGTAAACAAATTTTCCTAATCTTTCTGTTCAAGCGCCATCTAC”, the binding signal (RPM ratio (pull-down/input)) was 0.932.
For the sequence “GATGATTGTTCTCCCAGCTGATGAATTTGGTCGTTCGAGTAAACAAATTTTCCTAATCTTTCTGTTCAAGCGCCATCTAC”, the binding signal (RPM ratio (pull-down/input)) is 0.606.
Regarding “GATGATTGTTCTCCCAGCTGATGAATTTTATCTGTCGAGTAAACAAATTTTCCTAATCTTTCTGTTCAAGCGCCATCTAC”, the binding signal (RPM ratio (pull-down/input)) is 0.484.
With “GATGATTGTTCTCCCAGCTGATGAATTTCGTTGTTCGAGTAAACAAATTTTCCTAATCTTTCTGTTCAAGCGCCATCTAC”, the binding signal (RPM ratio (pull-down/input)) amounted to 3.89.
Consider “GATGATTGTTCTCCCAGCTGATGAATTGTCGAGATCGAGTAAACAAATTTTCCTAATCTTTCTGTTCAAGCGCCATCTAC”, for which the binding signal (RPM ratio (pull-down/input)) was determined as 0.293.
Consider “GATGATTGTTCTCCCAGCTGATGAATTTCTCAAATCGAGTAAACAAATTTTCCTAATCTTTCTGTTCAAGCGCCATCTAC”, for which the binding signal (RPM ratio (pull-down/input)) was determined as 0.218.
As for “GATGATTGTTCTCCCAGCTGATGAATTCGGCGCTTCGAGTAAACAAATTTTCCTAATCTTTCTGTTCAAGCGCCATCTAC”, the binding signal (RPM ratio (pull-down/input)) was found to be 0.768.
The figure for “GATGATTGTTCTCCCAGCTGATGAATTCAGTGCTTCGAGTAAACAAATTTTCCTAATCTTTCTGTTCAAGCGCCATCTAC” is 0.767.
Take “GATGATTGTTCTCCCAGCTGATGAATTTGTTCCATCGAGTAAACAAATTTTCCTAATCTTTCTGTTCAAGCGCCATCTAC”: the binding signal (RPM ratio (pull-down/input)) was 1.9.
As for “GATGATTGTTCTCCCAGCTGATGAATTAGCCCGTTCGAGTAAACAAATTTTCCTAATCTTTCTGTTCAAGCGCCATCTAC”, the binding signal (RPM ratio (pull-down/input)) worked out at 0.284.
With “GATGATTGTTCTCCCAGCTGATGAATTCGAACATTCGAGTAAACAAATTTTCCTAATCTTTCTGTTCAAGCGCCATCTAC”, the binding signal (RPM ratio (pull-down/input)) came to 0.468.
The same measure for “GATGATTGTTCTCCCAGCTGATGAATTAAATGACTCGAGTAAACAAATTTTCCTAATCTTTCTGTTCAAGCGCCATCTAC”: 0.548; for “GATGATTGTTCTCCCAGCTGATGAATTTGACTCGTCGAGTAAACAAATTTTCCTAATCTTTCTGTTCAAGCGCCATCTAC”: 0.513.
As for “GATGATTGTTCTCCCAGCTGATGAATTCTCAACGTCGAGTAAACAAATTTTCCTAATCTTTCTGTTCAAGCGCCATCTAC”, the binding signal (RPM ratio (pull-down/input)) is 0.271.
For the sequence “GATGATTGTTCTCCCAGCTGATGAATTGCCTAGGTCGAGTAAACAAATTTTCCTAATCTTTCTGTTCAAGCGCCATCTAC”, the binding signal (RPM ratio (pull-down/input)) came out at 0.347.
The figure for “GATGATTGTTCTCCCAGCTGATGAATTTGATTGATCGAGTAAACAAATTTTCCTAATCTTTCTGTTCAAGCGCCATCTAC” is 2.23; for “GATGATTGTTCTCCCAGCTGATGAATTGCCCCCATCGAGTAAACAAATTTTCCTAATCTTTCTGTTCAAGCGCCATCTAC” it is 0.513.
As to “GATGATTGTTCTCCCAGCTGATGAATTCCTCGTGTCGAGTAAACAAATTTTCCTAATCTTTCTGTTCAAGCGCCATCTAC”, the binding signal (RPM ratio (pull-down/input)) was determined as 0.332.
The figure for “GATGATTGTTCTCCCAGCTGATGAATTGAGACATTCGAGTAAACAAATTTTCCTAATCTTTCTGTTCAAGCGCCATCTAC” is 1.12; for “GATGATTGTTCTCCCAGCTGATGAATTGGACTAGTCGAGTAAACAAATTTTCCTAATCTTTCTGTTCAAGCGCCATCTAC” it is 0.255.
The same measure for “GATGATTGTTCTCCCAGCTGATGAATTGGCCCAATCGAGTAAACAAATTTTCCTAATCTTTCTGTTCAAGCGCCATCTAC”: 0.308; for “GATGATTGTTCTCCCAGCTGATGAATTTAGCCGCTCGAGTAAACAAATTTTCCTAATCTTTCTGTTCAAGCGCCATCTAC”: 1.56.
As for “GATGATTGTTCTCCCAGCTGATGAATTATATGTCTCGAGTAAACAAATTTTCCTAATCTTTCTGTTCAAGCGCCATCTAC”, the binding signal (RPM ratio (pull-down/input)) worked out at 1.18.
The same measure for “GATGATTGTTCTCCCAGCTGATGAATTTCCGGCATCGAGTAAACAAATTTTCCTAATCTTTCTGTTCAAGCGCCATCTAC”: 0.649.
As for “GATGATTGTTCTCCCAGCTGATGAATTTGTAGAGTCGAGTAAACAAATTTTCCTAATCTTTCTGTTCAAGCGCCATCTAC”, the binding signal (RPM ratio (pull-down/input)) amounted to 1.65.
The figure for “GATGATTGTTCTCCCAGCTGATGAATTTAGATGGTCGAGTAAACAAATTTTCCTAATCTTTCTGTTCAAGCGCCATCTAC” is 0.829.
The same measure for “GATGATTGTTCTCCCAGCTGATGAATTTATGCGATCGAGTAAACAAATTTTCCTAATCTTTCTGTTCAAGCGCCATCTAC”: 0.984; for “GATGATTGTTCTCCCAGCTGATGAATTTTCTGGCTCGAGTAAACAAATTTTCCTAATCTTTCTGTTCAAGCGCCATCTAC”: 0.164.
The same measure for “GATGATTGTTCTCCCAGCTGATGAATTCAGCCCATCGAGTAAACAAATTTTCCTAATCTTTCTGTTCAAGCGCCATCTAC”: 0.824.

The values above are taken from article PMC12820563.
